# Test results reported in paper PMC12136788.
# The list shows a part of the results.
# B1: chr1:186721242:186721243:-_ENSMUSG00000026620_ENSMUST00000027929|mus_hu|motif|central (ssRNA)
# RNA: GGGAGUUCUACAGUCCGACGAUCAAAAUAACAAGUAUUAAAAUGUACCUUUACUAGUGGUUUUACAUCGCAUAUAUCACGGAUUAUGAAAGAAAAGUAGGCAAAUGCCCAAUCACAAAGCGGCACAUUAUAGGCAUAAUGAUGCAACAGAGGAUUGAGCAUCA
# B2: 92119036_92119156_3663_CDS_ENSG00000127980_ENST00000248633|human|control|control (ssRNA)
# RNA: GGGAGUUCUACAGUCCGACGAUCGCUCCGGUAUCUGCCUUUGAUAAUACUGAUAUCUGCCCUCAGUUGAUCUCUUUGUUCUUGUGUAAGUUCUUGGCAACCCUCUUGUGAAGCUGUCCUUAACACUGGAGGCUGUGAAAACAACAACAGAGGAUUGAGCAUCA
# B3: chr17:23954396:23954397:+_ENSMUSG00000039218_ENSMUST00000088621|mus_mus|FALSE|FALSE (ssRNA)
# RNA: GGGAGUUCUACAGUCCGACGAUCCUCUUUUAAUUCAGAAGGCUCCAAUCUGCUCUGCACCAGAAAAGAUUUAGAGUCUACUAAAGGAUAUAUGCUAGAGUCAGGUUUAGUCUUACUCUGCUCAGGAGACAUUCCUGACUUCAGCAACAGAGGAUUGAGCAUCA
# B4: chr5:138606049:138606050:-_ENSMUSG00000029730_ENSMUST00000000505|mus_mus|FALSE|FALSE (ssRNA)
# RNA: GGGAGUUCUACAGUCCGACGAUCUAGCUCCUCAUAUUCAUCCAGAGCUGCCUGGAACUGGGCUGGUGUGAAGCCACGAGAUAUGCAGCGCUGUUCAGCCUCAGAAAAGUGGACACUCCGCCCCCGUGACACCAAUUCACGGAUCAACAGAGGAUUGAGCAUCA
# B5: 99063032_99064229_1972_CDS_ENSG00000152767_ENST00000319562|human|control|control (ssRNA)
# RNA: GGGAGUUCUACAGUCCGACGAUCUUCAAAAUUCGGGAAUAUGAGACUUUUCAGUGCUUCCGGCAUGGCGUCCUCUUUGCUCACUGUGCUCUGAAACCACGAAGUGAUAACUUCGAGAUCCUUCAGAUAUGUUCGCUCGGUGGUCAACAGAGGAUUGAGCAUCA
# B6: chr19:29101771:29101772:-_ENSMUSG00000024782_ENSMUST00000025696|mus_hu|FALSE|FALSE (ssRNA)
# RNA: GGGAGUUCUACAGUCCGACGAUCAGCAGUAAGGCGUUGUUUAAUGACCUCAAAGGGCACAUUCAGGUUAAUCACUGUGUCGAUCUGAUAAGCUCUAUCUAGGGCUUCUGCCUGUGGAAGUGUCCUUGGAAAACCAUCCAACAGCAACAGAGGAUUGAGCAUCA
# B7: chrX:91780989:91780990:-_ENSMUSG00000025151_ENSMUST00000026142|mus_hu|FALSE|FALSE (ssRNA)
# RNA: GGGAGUUCUACAGUCCGACGAUCCUCUAGAUAGCUGUGUUUAGAAGGAAUCUGAGGCUUCAGCCUCACACAGGGGAAAGACUACUGCGAUUGAUAGCAAUAUCCAACAUCUCACUCAACCCAGAAGAAACCAAUGGCACCAAACAACAGAGGAUUGAGCAUCA
# B8: 146889473_146889593_86_3pUTR_ENSG00000113657_ENST00000343218|human|control|control (ssRNA)
# RNA: GGGAGUUCUACAGUCCGACGAUCGCAGCCGCCGGCAGCGUGCGCCGAGCCACAGUGACUGUGGCGGGAGGAGGCGCCUGAGCCUUCGCGCCAGAGGCGGCAGUGCUGCUCCGAUUCCUGCUUGUCCCUAGCGAGCCAGCGAGCCAACAGAGGAUUGAGCAUCA
# B9: chr1:66480114:66480115:+_ENSMUSG00000015222_ENSMUST00000024639|mus_hu|mus_mus_mus_hu_True|1_48 (ssRNA)
# RNA: GGGAGUUCUACAGUCCGACGAUCUGGCCUGUGGCGGAUGUUCUUCAGAGAGCCACAUUUGGAUGUCACAUGGCUUAGGUCUAUUUUCUUAGUAACAAUUUGUACCUGCCCCCCUUUAGGCUGGUAUUUGAUGUUGUCAGUUGACAACAGAGGAUUGAGCAUCA
# B10: chr15:93570553:93570554:+_ENSG00000173575_ENST00000394196|hu_hu|FALSE|FALSE (ssRNA)
# RNA: GGGAGUUCUACAGUCCGACGAUCUCUAAGGCCAUAGUGUAUCAUGUCAACCCUUGUUCACGUGCAGGUUUUAGGUGAUGCUAACUCCCUCUUUCUCAACCUGUUAUUUCUACCAACAAUGAAAUCUUUCAAAGCCAGACUCCACAACAGAGGAUUGAGCAUCA
# B11: chr4:39507275:39507276:-_ENSG00000109814_ENST00000316423|hu_hu|FALSE|FALSE (ssRNA)
# RNA: GGGAGUUCUACAGUCCGACGAUCACUAGAAGAUUCUCUUGUAUCACCAGUGUCCUUUUUGAAUGCAAAUCCCAAAAUAGCUAUCUUCUUAUCAGUUACUGUAUUAAACAGACUAUCUAUGAUCCGGGAAGCAAACCUCCUCCUCAACAGAGGAUUGAGCAUCA
# B12: 47880682_47887520_1947_CDS_ENSG00000170448_ENST00000381538|human|control|control (ssRNA)
# RNA: GGGAGUUCUACAGUCCGACGAUCCUCAUGUUUCCCAAGACAUUCCAUAGGAAUAGGAACUUGACAUGGAGGACACGGUAAUGCAGUCUGAAUAAAUGCUGGCUCAGAAGGCUGUUCCCAAGGGCCUGUAGGCUGGUGCCUGCCCAACAGAGGAUUGAGCAUCA
# B13: 51247755_51250570_940_CDS_ENSMUSG00000063273_ENSMUST00000029303|mouse|control|control (ssRNA)
# RNA: GGGAGUUCUACAGUCCGACGAUCCCCUUUGGUUUCUUCAACAGCAAGUUUAUCACAAAUCUGCUUUUCAUAGGUACAAAGAUGUUCCAGGGCUUCUCUAUAAAGACCUGCUUCCCGAAGAACUUGAUUCUGAUAUAAGAGGAGCAACAGAGGAUUGAGCAUCA
# B14: chr1:149875238:149875239:-_ENSG00000159164_ENST00000369146|hu_mus|FALSE|FALSE (ssRNA)
# RNA: GGGAGUUCUACAGUCCGACGAUCUGUGGUUAGUUUAACUUCCUUUUAACUUUUUUUUUUUUUAACAUUUUACAAACAGCUAAAAACUACAACACGUCACAGCUACGUUGGGAGUGGAGAGAGAGUACCAAAGAAAGCAGCCACCAACAGAGGAUUGAGCAUCA
# Molecular target: T1, UNK ZnF1-3 (human, UniProt Q9C0B0 31-174)
# T1 sequence: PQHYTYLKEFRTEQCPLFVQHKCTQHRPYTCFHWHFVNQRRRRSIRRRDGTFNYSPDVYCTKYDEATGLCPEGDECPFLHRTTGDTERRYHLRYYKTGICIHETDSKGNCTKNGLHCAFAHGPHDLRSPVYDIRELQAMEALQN
# Experiment: nsRBNS (natural sequence RNA bind-n-seq); RBNS binding buffer (assumed for nsRBNS): 25 mM Tris pH 7.5, 150 mM KCl, 3 mM MgCl2, 0.01% Triton X-100, 500 ug/ml BSA, 20 U/ml SUPERase-In, 4 C; UNK is unkempt and MSI1 is Musashi-1; names of the RNAs are library labels; protein concentration not given here; high values mean tight binding
row,Binder,binding signal [enrichment R]
1,B1,0.878
2,B2,0.665
3,B3,0.571
4,B4,0.852
5,B5,0.575
6,B6,0.591
7,B7,1.18
8,B8,0.79
9,B9,0.498
10,B10,0.789
11,B11,1.18
12,B12,0.888
13,B13,1.41
14,B14,1.81
